From publication PMC4336329 (PLoS ONE, 2015)
Among all 310,000 compounds or so, about 2,200 (0.71%) showed an effect of 50% or more. The effect is printed as a negative number. The list shows a part of the results.

molecular target: human ether-à-go-go-related gene (hERG) potassium channel (human, UniProt Q12809); test: primary screen, population patch clamp on CHO cells stably expressing hERG
Sequence (Q12809 whole entry, looked up): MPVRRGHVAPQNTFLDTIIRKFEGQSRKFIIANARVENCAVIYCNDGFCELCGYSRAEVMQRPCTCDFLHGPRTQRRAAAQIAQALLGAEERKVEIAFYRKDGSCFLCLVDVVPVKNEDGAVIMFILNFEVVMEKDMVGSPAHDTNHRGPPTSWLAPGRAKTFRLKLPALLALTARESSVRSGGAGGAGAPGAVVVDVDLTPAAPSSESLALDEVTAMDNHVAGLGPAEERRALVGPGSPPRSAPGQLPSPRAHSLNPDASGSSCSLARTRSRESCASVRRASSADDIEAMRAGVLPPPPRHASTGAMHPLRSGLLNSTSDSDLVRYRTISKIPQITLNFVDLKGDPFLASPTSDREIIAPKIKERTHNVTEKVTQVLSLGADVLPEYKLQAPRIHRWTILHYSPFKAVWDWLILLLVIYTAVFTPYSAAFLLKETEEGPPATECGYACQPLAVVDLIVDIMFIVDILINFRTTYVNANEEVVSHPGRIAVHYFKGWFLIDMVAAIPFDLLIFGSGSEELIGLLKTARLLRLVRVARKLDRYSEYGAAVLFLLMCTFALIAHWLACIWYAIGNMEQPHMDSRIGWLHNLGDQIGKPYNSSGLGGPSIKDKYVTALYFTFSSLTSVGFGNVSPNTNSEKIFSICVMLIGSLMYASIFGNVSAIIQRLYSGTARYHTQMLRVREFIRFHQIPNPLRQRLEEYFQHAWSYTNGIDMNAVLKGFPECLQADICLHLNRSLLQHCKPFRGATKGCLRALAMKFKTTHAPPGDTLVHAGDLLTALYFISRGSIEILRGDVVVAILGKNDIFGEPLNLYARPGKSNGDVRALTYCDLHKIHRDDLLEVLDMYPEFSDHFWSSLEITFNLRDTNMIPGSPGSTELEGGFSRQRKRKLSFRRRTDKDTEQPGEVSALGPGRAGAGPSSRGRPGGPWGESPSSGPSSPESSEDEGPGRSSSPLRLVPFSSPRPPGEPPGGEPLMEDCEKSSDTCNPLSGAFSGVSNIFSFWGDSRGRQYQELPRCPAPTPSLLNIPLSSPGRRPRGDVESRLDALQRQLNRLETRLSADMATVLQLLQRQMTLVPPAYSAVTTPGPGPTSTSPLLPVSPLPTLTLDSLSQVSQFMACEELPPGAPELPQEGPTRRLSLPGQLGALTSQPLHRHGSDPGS

Compound	hERG current change (%, negative = inhibition) at 1uM [%]
COc1ccc(C(=O)Nc2ccc(S(=O)(=O)Nc3cc(C)nc(C)n3)cc2)cc1	17.4
CCn1nc(NC(=O)c2ccncc2)c2cc3cc(C)ccc3nc21	12.8
CC(C)NS(=O)(=O)c1ccc(NC(=O)NC2CCCCC2)cc1	1.42
Cc1ccc(OCC(=O)N2CCN(S(=O)(=O)c3ccc(Cl)s3)CC2)cc1C	10.6
Cc1onc(-c2ccccc2Cl)c1C(=O)OCC(=O)c1ccc2c(c1)OCCO2	12.8
O=C(Nc1nccs1)c1cc(Cl)ccc1[N+](=O)[O-]	6.59
COc1ccc(N=C2NC(=O)C(CC(=O)NCCc3ccc(OC)c(OC)c3)S2)cc1 (centres unmarked)	-0.595
COc1ccc(-n2c(-c3ccco3)nc3ccccc3c2=O)cc1	8.95
O=C(C1CCN(c2ncnc3c2sc2cccc(F)c23)CC1)N1CCOCC1	-6.76
COc1ccc(C(=O)N/C(=C\c2ccc3c(c2)OCO3)C(=O)Nc2cccc(C(=O)O)c2)cc1	7.13
CC(C)n1c(Nc2ccccc2)nc2ccccc21	2.62
CCOC(=O)c1cc(C(=O)OCC)c(=O)[nH]c1N1CCCC1	3.97
O=C(COC(=O)C1CC1)NC(=O)c1ccccc1	-4.44
O=C(Nc1ccccc1Oc1ccccc1)c1ccccc1F	5.6
COc1cc2c(cc1NC(=O)CSc1nnnn1-c1ccccc1)oc1ccccc12	-5.22
Cc1ccc2nc(NC(=O)C3CC(=O)N(Cc4ccco4)C3)sc2c1 (centres unmarked)	16.8
O=C(N/N=C/c1cccc(O)c1)c1cc(-c2ccccc2)nc2ccccc12	14.2
CC1=CC(C)(C)N(C(=O)c2ccccc2)c2ccccc21	-1.53
Oc1ccc(/C=N/Nc2ccnc3cc(Cl)ccc23)c(O)c1O	8.22
COc1ccc(NC(=O)NCCN2CCc3ccccc3C2)cc1	-1.55
O=C(NNC(=O)c1ccncc1)c1ccncc1	20.8
O=C(O)CCC(=O)Nc1nc2ccc([N+](=O)[O-])cc2s1	7.91
COc1ccc(N2CCN(C(=O)CN(Cc3ccccc3)S(C)(=O)=O)CC2)cc1	-3.72

Compound	hERG current change (%, negative = inhibition) at 1uM [%]
COc1ccc(OC)c(S(=O)(=O)N2CCC(c3nc4ccccc4[nH]3)CC2)c1	-7.22
Cc1ccc(NC(=O)C(C)OC(=O)/C=C/c2ccccc2)cc1 (centres unmarked)	9.66
COc1ccccc1N1CCN(C2CCCN(C(=O)c3ccsc3)C2)CC1 (centres unmarked)	1.98
O=C(/C=C/c1cc([N+](=O)[O-])ccc1OC(F)F)Nc1cccc2ccccc12	11.8
CCCCOCC(O)CN1CCN(C(C)=O)CC1.O=C(O)C(=O)O (centres unmarked)	14.8
CC1CCCN(C(=O)CCNS(=O)(=O)c2ccc3c(c2)c(=O)n(C)c(=O)n3C)C1 (centres unmarked)	-4.34
Cn1c(=O)oc2cc(S(=O)(=O)NC(Cc3ccccc3)C(=O)N3CCCCC3)ccc21 (centres unmarked)	10.9
CCOc1ccc(N2C(=O)CC(NCC3CCCO3)C2=O)cc1 (centres unmarked)	-0.391
Cc1c(C(=O)NCc2ccccc2)cnn1-c1ccccc1	3.83
CC(=O)Nc1ccc(S(=O)(=O)N2CCN(C(=O)N3CCOCC3)CC2)cc1	8.94
COc1ccccc1OCC(=O)Nc1nnc(C2CCCC2)s1	16.3
COc1cc(C(C)=O)ccc1OCC(=O)OCCCOC(=O)COc1ccc(C(C)=O)cc1OC	13.8
COc1ccc2cc(C(=O)N3CCCC(Nc4ccc(F)cc4)C3)n(C)c2c1 (centres unmarked)	6.16
Cc1ccc(CN2CCNC(=O)C2CC(=O)NCc2csc(C(C)C)n2)cc1 (centres unmarked)	0.784
CCCCN(C(=O)CSCc1ccc(C)cc1)c1c(N)n(CCC)c(=O)[nH]c1=O	0.707
CC(C)c1ccccc1NC(=O)COC(=O)c1cc([N+](=O)[O-])ccc1N1CCOCC1	10.4
CCOC(=O)c1ccccc1NC(=O)CSc1ccc(-c2cccnc2)nn1	-18.2
O=C(O)c1nccnc1C(=O)Nc1ccc(Cl)cc1Cl	17.4
N#Cc1c(Cn2cncn2)nc(=O)n(-c2ccc(Cl)cc2)c1N	17.1
CCOc1ccccc1OCC(=O)Nc1ccc(Cl)cc1C(=O)c1ccccc1	15.4
NS(=O)(=O)c1ccc(Nc2ncccc2[N+](=O)[O-])cc1	20.7
C=CCOc1ccc(/C=N/n2cncn2)cc1OC	0.678
CCN1CCCC1CNS(=O)(=O)c1ccc(F)c(Cl)c1 (centres unmarked)	10.8

Compound	hERG current change (%, negative = inhibition) at 1uM [%]
CC12CN3CC(C)(CN(C1)C3c1ccncc1)C2=O (centres unmarked)	12.3
O=C(O)c1cc(-c2ccc(Cl)c(Cl)c2)n(-c2ccccc2)n1	9.21
Cc1ccc(NC(=O)CCS(=O)(=O)c2ccc(Br)cc2)nc1	23.7
O=C(Cn1c(-c2ccc(Cl)cc2)noc1=O)N1CCN(c2ccccc2F)CC1	-6.47
Cc1ccc(S(=O)(=O)N(C)CC(=O)NC2CC(C)(C)NC(C)(C)C2)cc1	4.83
O=C(c1ccco1)N1N=C(c2ccco2)CC1c1ccc(Cl)cc1Cl (centres unmarked)	13.1
CC(O)CNCCOc1ccccc1-c1ccccc1.O=C(O)C(=O)O (centres unmarked)	5.13
O=C(O)CNC(=O)/C=C/c1c(Cl)cccc1Cl	-6.28
CCn1c(SCC(=O)Nc2ccc(N3CCOCC3)cc2)nnc1C1CC1	14.6
Cc1csc(=O)n1CC(=O)Nc1nc2ccccc2s1	-2
CC(Oc1ccc(Br)cc1)C(=O)N1CCc2ccccc21 (centres unmarked)	6.01
COc1ccc(C(=O)O/N=C(\N)c2ccccn2)c(OC)c1	13.6
O=C(c1ccc2c(c1)N(Cc1ccccc1)C(=O)c1ccccc1S2)N1CCCC1	7.21
O=C(NC1CCCCC1)N1CCC(c2nc3ccccc3[nH]2)CC1	-0.86
Cc1ccc(NC(=O)COC(=O)COc2cccc3c2OC(C)(C)C3)cc1S(=O)(=O)N1CCOCC1	15
COC(=O)C(N)Cc1ccc(OC)c([N+](=O)[O-])c1.Cl (centres unmarked)	8.87
COCCN(Cc1ccco1)C(=O)C1CCCN(c2ncnc3c2nc2n3CCCCC2)C1 (centres unmarked)	-2.93
Cc1cc(NS(=O)(=O)c2ccccc2)cc(Cl)c1O	0.687
CCOC(=O)N1CCN(C(=O)CCn2c(=S)[nH]c3cc(OCC)c(OCC)cc3c2=O)CC1	1.19
Cc1c(Br)c([N+](=O)[O-])nn1CC(=O)Nc1c(C)n(C)n(-c2ccccc2)c1=O	12.3
CCOc1cc(C(c2c(C)[nH][nH]c2=O)c2c(C)[nH][nH]c2=O)ccc1OC(=O)c1cccc([N+](=O)[O-])c1	-8.03
O=C(CCNC(=O)c1ccc(Cl)cc1)Nc1ccccc1Cl	11
Cc1cc(C)c(OCCN(C)Cc2ccccc2)c(Br)c1	14

Compound	hERG current change (%, negative = inhibition) at 1uM [%]
COc1ccccc1-c1nc(-c2ccc(C(=O)O)cc2)no1	15.5
CCOc1ccc(Oc2ccc(-c3nnc(-c4ccccc4)o3)cc2[N+](=O)[O-])cc1	10.1
CNC(=O)CC12CC3CC(CC(C3)C1)C2	8.07
Cc1ccc(OCC(=O)N2CCN(C(=O)c3cccnc3)CC2)cc1	-2.21
Cc1ccccc1-n1nc2c(c1NC(=O)c1ccc(S(=O)(=O)N(C)C)cc1)CSC2	15.4
Cc1ccc(S(=O)(=O)N2CCN(C(=S)NCCc3ccccc3)CC2)cc1	7.08
O=C1CCCS(=O)(=O)c2ccccc21	2.81
CCNC(=S)NNC(=O)c1cc(-c2cccc(OC)c2)nc2ccccc12	8.11
COCCCNC(=O)C1CCC(CNS(=O)(=O)c2ccc3c(c2)N(C(C)=O)CCO3)CC1 (centres unmarked)	2.67
CCN1CCCC1CNC(=O)c1cc(NC(C)=O)c(N(C)C)cc1OC (centres unmarked)	18.8
COc1ccc(C2/C(=C(\O)c3ccc4c(c3)OCCO4)C(=O)C(=O)N2Cc2cccnc2)cc1 (centres unmarked)	16.8
CN(C)C(=O)c1ccc(NC(=O)COC(=O)C2=COCCO2)cc1	15
CCOC(=O)c1nn(-c2ccccc2C)c2nc(CC(C)C)c(C#N)c(=O)n12	15.8
CCn1c(NC(=O)C(C)C)c(-c2ccccc2)c(=O)c2ccccc21	3.91
O=C(O)COc1cccc2ccccc12	-1.41
NC(=S)N/N=C/c1coc2cc(Br)ccc2c1=O	15.1
S=C(Nc1ccccc1)Nc1ccc(Cl)cc1Cl	16.5
COc1ccc(N2CCC(CNC(=O)Nc3ccc(OC)cc3OC)C2)cc1 (centres unmarked)	11.5
CCn1c(=O)c(-c2ccccc2)c(O)c2ccccc21	7.88
CC1(C)NC(=O)N(CC(O)COC2CCCCC2)C1=O (centres unmarked)	6.03
